The campaign covered roughly 310,000 compounds. About 2,200 (0.71%) showed an effect of 50% or more. The effect is printed as a negative number. The list shows a part of the results.

In this experiment the target is human ether-à-go-go-related gene (hERG) potassium channel (human, UniProt Q12809). The experiment can be described thus: primary screen, population patch clamp on CHO cells stably expressing hERG.
Sequence of human ether-à-go-go-related gene (hERG) potassium channel (Q12809 whole entry, looked up): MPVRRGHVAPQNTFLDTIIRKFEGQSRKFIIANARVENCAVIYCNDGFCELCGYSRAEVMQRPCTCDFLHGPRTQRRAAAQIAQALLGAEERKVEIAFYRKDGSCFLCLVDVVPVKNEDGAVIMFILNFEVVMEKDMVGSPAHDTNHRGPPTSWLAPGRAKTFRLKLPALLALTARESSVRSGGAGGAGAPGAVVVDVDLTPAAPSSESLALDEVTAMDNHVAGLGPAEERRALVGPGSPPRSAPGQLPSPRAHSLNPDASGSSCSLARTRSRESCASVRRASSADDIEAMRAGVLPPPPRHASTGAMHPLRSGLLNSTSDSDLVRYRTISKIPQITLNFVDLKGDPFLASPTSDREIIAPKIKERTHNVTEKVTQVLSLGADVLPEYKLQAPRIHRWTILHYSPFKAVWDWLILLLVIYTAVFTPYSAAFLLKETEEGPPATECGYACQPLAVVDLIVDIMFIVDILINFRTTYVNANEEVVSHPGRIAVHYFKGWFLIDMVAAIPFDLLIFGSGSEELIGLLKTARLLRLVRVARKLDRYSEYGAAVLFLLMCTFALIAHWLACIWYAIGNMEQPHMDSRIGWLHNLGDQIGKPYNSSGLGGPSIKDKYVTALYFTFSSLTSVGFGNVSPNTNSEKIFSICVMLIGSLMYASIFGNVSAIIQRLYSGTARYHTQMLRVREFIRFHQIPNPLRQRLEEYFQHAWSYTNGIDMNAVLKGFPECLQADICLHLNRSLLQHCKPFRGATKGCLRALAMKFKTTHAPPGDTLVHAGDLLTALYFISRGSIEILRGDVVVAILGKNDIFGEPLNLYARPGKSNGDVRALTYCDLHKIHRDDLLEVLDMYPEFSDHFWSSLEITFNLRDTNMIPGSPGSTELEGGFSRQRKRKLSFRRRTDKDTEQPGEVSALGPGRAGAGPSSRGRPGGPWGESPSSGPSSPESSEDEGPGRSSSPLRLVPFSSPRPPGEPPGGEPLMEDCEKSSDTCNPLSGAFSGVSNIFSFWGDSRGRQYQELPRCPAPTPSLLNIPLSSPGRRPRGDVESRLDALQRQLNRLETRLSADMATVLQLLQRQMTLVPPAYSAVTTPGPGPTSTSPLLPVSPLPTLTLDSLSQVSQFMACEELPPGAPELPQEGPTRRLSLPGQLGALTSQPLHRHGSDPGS
As to `COc1ccccc1C(=O)CSc1nccn1C`, the “hERG current change (%, negative = inhibition) at 1uM” value was -1.6%.

As to `O=C(C1CC1)N1CCN=C1SCc1cccc(C(F)(F)F)c1`, the “hERG current change (%, negative = inhibition) at 1uM” value is recorded as 8.63%. On to `Nc1c(N2CCCCC2)c(=O)[nH]c(=O)n1-c1ccccc1`, for which the “hERG current change (%, negative = inhibition) at 1uM” value came out at 9.43%. Consider `COC(=O)c1[nH]c2ccccc2c1NC(=O)CN1CCCc2ccccc21`, for which the “hERG current change (%, negative = inhibition) at 1uM” value is reported as -7.78%.

As to `Cn1c(SCC(=O)NC(=O)NCc2ccccc2)nnc1C(F)(F)F`, the “hERG current change (%, negative = inhibition) at 1uM” value is given as 0.965%. Take `Cc1nc(C(F)(F)F)nc(Nc2ccc(N=Nc3ccccc3)cc2)c1C#N`: the “hERG current change (%, negative = inhibition) at 1uM” value worked out at 6.04%. Next, `Cc1ccc(CNC(=O)COC(=O)c2ccc(S(=O)(=O)NCc3ccco3)cc2)cc1`: 9.7%; `CCc1ccc(-c2cc(C(=O)NCc3ccco3)c3ccccc3n2)s1`: 2.59%; `COc1ccccc1NC(=O)COc1coc(CN2CCN(c3ccccc3)CC2)cc1=O`: -3.77%.

As for `COc1ccc(OC)c(-c2csc(NC(=O)C3=NN(c4ccccc4)C(=O)CC3)n2)c1`, the “hERG current change (%, negative = inhibition) at 1uM” value is 1.94%. The same measure for `Cc1cc(C)nc(SCCn2c(N(C)Cc3ccccc3)nc3c2c(=O)n(C)c(=O)n3C)n1`: 4.27%. Next, `CNS(=O)(=O)c1cccc(C(=O)NNC(=O)CN(C)S(=O)(=O)c2ccc(Cl)cc2)c1`: 13.8%; `Cc1cccc(NC(=O)c2ccc(NCCc3ccccc3)c([N+](=O)[O-])c2)c1`: 9.98%. The same measure for `CCCCSC1=N/C(=C/c2ccsc2)C(=O)N1c1ccccc1`: 17.1%; for `CCCCNc1c(-c2ccc(-c3ccc(C(C)=O)cc3)c(OC)c2)nc2cnccn12.O=C(O)C(F)(F)F`: 3.76%; for `CCS(=O)(=O)c1ccc2oc(SCC(=O)NCCC3=CCCCC3)nc2c1`: -20.6%.

Turning to `COc1ccc(-c2noc(N3CCCC(C(=O)Nc4ccccc4F)C3)n2)cc1` (centres unmarked), the “hERG current change (%, negative = inhibition) at 1uM” value amounted to 10.3%. Consider `CC1CCN(S(=O)(=O)c2cc(C(=O)N3CCN(c4ncccn4)CC3)ccc2Br)CC1`, for which the “hERG current change (%, negative = inhibition) at 1uM” value is listed as -22.6%. The same measure for `CCN1C(=O)C(CC(=O)Nc2c(C)cccc2C)SC1=Nc1ccc(S(N)(=O)=O)cc1` (centres unmarked): 15.5%. As for `O=C(NCc1cccnc1)c1ccc(-c2cccc(Cl)c2Cl)o1`, the “hERG current change (%, negative = inhibition) at 1uM” value is recorded as 5.38%. The same measure for `CCCCC(CC)COP(=O)(OCC(CC)CCCC)OCC(CC)CCCC` (centres unmarked): 6.51%; for `COc1ccc(C(=O)NC2CCCCCCC2)cc1OC`: 9.08%.

For the compound `Cn1cnnc1SCC(=O)Nc1ccc2nc(SCc3cccc4ccccc34)sc2c1`, the “hERG current change (%, negative = inhibition) at 1uM” value is reported as 6.71%.

Take `Cc1ccc(-c2nnn(CC(=O)Nc3cccc4c3CCCC4)n2)o1`: the “hERG current change (%, negative = inhibition) at 1uM” value is listed as 7.41%. Next, `O=C1ON=C(c2ccccc2)/C1=C/c1ccc(O)c(O)c1`: 15.5%; `COc1ccc(C(=O)N2CCc3cc(OC)c(OC)cc3C2c2ccc(OC)c(OC)c2)cc1` (centres unmarked): 1.47%.

Consider `COc1ccc(-c2nnn(CCc3nn[nH]n3)n2)cc1`, for which the “hERG current change (%, negative = inhibition) at 1uM” value came to 10.2%. Next, `COc1ccccc1NC(=O)N(CCN(C)C)Cc1cc2cc(C)ccc2[nH]c1=O`: -29.9%. `O=C(CSc1ncccc1C(=O)O)NCCC1=CCCCC1`: the “hERG current change (%, negative = inhibition) at 1uM” value is -1.03%. The same measure for `COc1cc(/C=N/NC(=O)c2ccccn2)ccc1OC(=O)c1cccs1`: -10.1%; for `Cc1nnc(N(C)C(=O)c2ccncc2)s1`: 12%; for `COc1ccc(CCNC(=O)CN(c2cc([N+](=O)[O-])ccc2OC)S(C)(=O)=O)cc1`: 16.9%. Take `Cc1ccnc2nc(C(=O)Nc3ccc(N4CCOCC4)cc3)nn12`: the “hERG current change (%, negative = inhibition) at 1uM” value was 12.4%. Next, `COc1ccc(N2COC3c4cccc5cccc(c45)C32)cc1` (centres unmarked): 13.3%; `CNC(=S)NNC(=O)c1cc(-c2cccnc2)nc2ccccc12`: 10%; `Cc1ccc(S(=O)(=O)C2C(=O)N(C)C3(C)CC2c2ccccc2O3)cc1` (centres unmarked): 16.9%. Next, `O=C(/C=C/Nc1ccc(S(=O)(=O)Nc2ncccn2)cc1)c1ccc2ccccc2c1`: 8.92%; `S=C(NCCc1ccccc1)NCCc1ccccc1`: 15%; `CCN1CCN(Cc2ccc(NC(=O)Nc3ccccc3)cc2)CC1`: 4.53%. The same measure for `COc1cccc(-n2c(Cc3cc(=O)[nH]c(=O)[nH]3)nnc2SCC(=O)N2CCCCCC2)c1`: 3.73%. Take `c1ccc(CCNc2ncnc3ccccc23)cc1`: the “hERG current change (%, negative = inhibition) at 1uM” value is recorded as -19.1%.

Consider `Cc1ccc(S(=O)(=O)NCC(=O)NCc2cc(=O)n(C)c(=O)n2C)cc1C`, for which the “hERG current change (%, negative = inhibition) at 1uM” value turned out to be 14.6%.

On to `Cc1cccc(OCC(=O)Nc2ccc3c(c2)OCO3)c1C`, for which the “hERG current change (%, negative = inhibition) at 1uM” value is 12.7%. Next, `COc1ccc(CNc2nc3ccccc3n2CCN2CCCCC2)cc1`: -15.8%.

The values are drawn from PMC4336329 (PLoS ONE, 2015).
